Experimental data as given in PubChem BioAssay AID360 (National Center for Advancing Translational Sciences (NCATS), 2006).
Hit rate of the full screen: of about 48,000 compounds, about 550 (1.1%) were called active. Inconclusive results (about 4%) are left out. Rule as the data show it: active = potency below about 15 µM; inconclusive = mostly about 16 µM to 33 µM; inactive = weaker than that. The list shows a part of the results.

biological target: Lysosomal acid glucosylceramidase (Homo sapiens) (UniProt P04062); assay: Glucocerebrosidase; conditions: purified enzyme, resorufin glucoside fluorescence (screen aimed at inhibitors), 20 min;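 also: the screen sought inhibitors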
UniProt P04062, sequence (P04062 whole entry, looked up): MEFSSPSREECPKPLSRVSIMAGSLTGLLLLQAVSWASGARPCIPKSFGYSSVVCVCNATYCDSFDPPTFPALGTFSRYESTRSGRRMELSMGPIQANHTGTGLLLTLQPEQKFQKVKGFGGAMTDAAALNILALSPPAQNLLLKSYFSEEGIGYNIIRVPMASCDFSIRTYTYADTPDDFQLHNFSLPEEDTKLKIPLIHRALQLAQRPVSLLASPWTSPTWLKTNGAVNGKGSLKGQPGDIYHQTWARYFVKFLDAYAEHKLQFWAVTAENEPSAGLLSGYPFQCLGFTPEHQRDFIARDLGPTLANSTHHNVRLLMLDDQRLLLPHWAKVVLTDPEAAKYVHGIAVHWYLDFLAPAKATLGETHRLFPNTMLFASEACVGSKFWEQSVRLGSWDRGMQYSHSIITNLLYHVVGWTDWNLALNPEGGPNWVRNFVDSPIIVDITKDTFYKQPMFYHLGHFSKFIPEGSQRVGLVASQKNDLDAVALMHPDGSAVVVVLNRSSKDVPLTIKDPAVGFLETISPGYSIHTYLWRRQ
How it was run: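 Normal human glucocerebrosidase (0.2 nM final) was assayed with resorufin β-D-glucopyranoside (30 uM final) in 50mM citric acid/KH2PO4, 10mM sodium taurocholate, 0.01% tween-20, pH 5.9. Compounds were titrated; fluorescence (Ex 548, Em 600) read after 20 min at RT.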
Potency is read from the fitted curve at half-maximal effect.

Structure (SMILES)	Potency
COc1ccc(C2C(C(=O)O)CC(=O)N2c2ccc(OC)cc2)cc1 (centres undefined)	inactive: > 76.9 µM
CSc1ccccc1NC(=O)C1CC(c2ccccc2O)=NO1 (centres undefined)	inactive: > 76.9 µM
COc1ccc(NC(=O)COC(=O)c2ccc(Br)o2)cc1OC	inactive: > 76.9 µM
CC1(C)Cc2c(sc3c2c(=N)n(Cc2ccco2)c(=O)n3Cc2ccc(Cl)cc2)CO1	inactive: > 76.9 µM
CCOC(=O)c1[nH]c(C(=O)O)c(CCN(CC)CC)c1C	inactive: > 76.9 µM
Cc1cc(NC(=O)c2ccc(S(=O)(=O)N3CCCC3)cc2)nc2c1c(=O)oc1ccccc12	inactive: > 76.9 µM
CCCCOCCCNC(=O)N[C@@H](CC(C)C)C(=O)O	inactive: > 76.9 µM
CCOCCCNC(=O)C(Cc1ccccc1)NC(=O)c1ccco1 (centres undefined)	inactive: > 76.9 µM
Cc1ccc2c(C)nc(Nc3ncc4c(n3)CCCC4=O)nc2c1	inactive: > 76.9 µM
Cc1cc(C)c(C#N)c(SCc2ccccc2C(=O)O)n1	inactive: > 76.9 µM
Cc1ccc(NC2c3ncccc3C(=O)N2C2CCCCC2)cc1 (centres undefined)	inactive: > 76.9 µM
CCC(Sc1nc2ccccc2c(=O)n1CC1CCCO1)C(=O)NCc1cccnc1 (centres undefined)	inactive: > 76.9 µM
Cc1cc(N2CCC(C(=O)N3CCN(c4cccc(C)c4C)CC3)CC2)n2ncnc2n1	inactive: > 76.9 µM
O=C(Nc1cccc(NC(=O)c2ccc(-c3cccc(Br)c3)o2)c1)c1ccco1	inactive: > 76.9 µM
COc1ccc2c(-c3cccnc3)cc(=O)[nH]c2c1	active: 8.92 µM
O=C(CN1C(=O)c2ccccc2C1=O)OCC(=O)N1CCc2ccccc2C1	inactive: > 76.9 µM
CCC(=O)N(CC)c1nc(-c2ccc(OC)cc2)cs1	inactive: > 76.9 µM
Cn1c(=O)n(C)c2cc(S(=O)(=O)N3CCOCC3)ccc21	inactive: > 76.9 µM
Cc1n[nH]c(C)c1-c1nc2ccccc2[nH]1	inactive: > 76.9 µM
Cc1ccc2cc(CN(Cc3nnnn3Cc3ccco3)CC3CCCO3)c(=O)[nH]c2c1C (centres undefined)	inactive: > 76.9 µM
CCOc1ccccc1C(=O)Nc1ccccc1C(N)=O	inactive: > 76.9 µM
CCOc1ccc(OCC)c(NC(=O)Cn2cccc2)c1	inactive: > 76.9 µM
COc1cccc(NC(=O)c2cccs2)c1	inactive: > 76.9 µM
NC(=O)C(F)(F)C12OC3C4C5CC(C6C5C3C61)C42 (centres undefined)	inactive: > 76.9 µM

Structure (SMILES)	Potency
CCOC(=O)Nc1cccc(OCC(=O)Nc2ccc(OC)cc2OC)c1	inactive: > 76.9 µM
Cc1cccc(C(OC(=O)c2ccco2)C(=O)NCc2ccccc2)n1 (centres undefined)	inactive: > 76.9 µM
CC(C)C(C)(C#N)NC(=O)CSc1nc2scc(-c3ccco3)c2c(=O)n1-c1ccccc1 (centres undefined)	active: 15.1 µM
C=C1C(C(=O)N2CCOCC2)C1C(=O)N1CCOCC1 (centres undefined)	inactive: > 76.9 µM
O=C(O)COCc1nc2ccccc2[nH]1	inactive: > 76.9 µM
O=C1CCC(C(=O)NCCCn2ccnc2)N1 (centres undefined)	inactive: > 76.9 µM
O=c1c(-c2ccccc2)[n+]([O-])c2ccccc2n1O	inactive: > 76.9 µM
Cc1cc(N2CCCC2=O)cc(C)c1S(N)(=O)=O	inactive: > 76.9 µM
CCOC(=O)N1CCN(C(=O)C2CC(=O)N(Cc3ccc(OC)cc3)C2)CC1 (centres undefined)	inactive: > 76.9 µM
COC(=O)c1cc(Cl)c(NC(=O)c2ccco2)cc1OC	inactive: > 76.9 µM
c1coc(CNCC2OCCc3ccccc32)c1 (centres undefined)	inactive: > 76.9 µM
CCn1c(COc2cccc(C)c2)nnc1SCC(=O)N1CCCC1	inactive: > 76.9 µM
O=C1CCCN1CC(CN1CCOCC1)Sc1nc2ccccc2c(=O)n1-c1ccccc1 (centres undefined)	inactive: > 76.9 µM
Cc1cccc(N(C)S(=O)(=O)c2ccc3[nH]c(=O)c(=O)[nH]c3c2)c1	active: 10.9 µM
COC(=O)Cn1c(=N)n(CCN2CCCCC2)c2ccccc21	inactive: > 76.9 µM
CCN(CC)c1ccc(NC(=O)c2ccc(Br)o2)c(C)c1	inactive: > 76.9 µM
O=C(Nc1ccccc1OC(F)F)c1ccc(F)cc1	inactive: > 76.9 µM
CCOC(=O)c1cccc(NC(=O)CSc2nnc(COc3ccccc3C)o2)c1	inactive: > 76.9 µM
Cc1nonc1NC(=O)CSc1ccc(-c2ccccc2)nn1	inactive: > 76.9 µM
Cc1ncsc1C(=O)NCc1ccc(N2CCCC2=O)cc1	inactive: > 76.9 µM
O=C(CN1CCN(c2ccccc2)CC1)N1CCN(c2ccccc2)CC1	inactive: > 76.9 µM
COC(=O)c1c(C)oc2ccc(NS(=O)(=O)c3cc(OC)ccc3OC)cc12	inactive: > 76.9 µM
CC(C)(C)NC(=O)C(c1ccco1)N(C(=O)Cn1nnc(-c2ccc(F)cc2)n1)c1ccccc1F (centres undefined)	inactive: > 76.9 µM
Cc1nc(NCCN2CCOCC2)c2oc3ccccc3c2n1	inactive: > 76.9 µM

Structure (SMILES)	Potency
Cc1ccc(C)c2nc(N3CCCC3)c(C#N)cc12	inactive: > 76.9 µM
CC(C)(C)NC(=O)NC(=O)COC(=O)C1CC(=O)N(Cc2ccccc2)C1 (centres undefined)	inactive: > 76.9 µM
COc1ccc(-c2nnc(SC(C)C(=O)Nc3nccs3)n2-c2ccccc2)cc1OC (centres undefined)	inactive: > 76.9 µM
Cc1cc(NC(=O)c2c(F)c(F)c(F)c(F)c2F)no1	inactive: > 76.9 µM
NC(=O)c1cc(S(=O)(=O)NC2CCCCC2)co1	inactive: > 76.9 µM
CCOC(=O)c1c(C)c(C(=O)NC(C)COC)c(C)n1CC (centres undefined)	inactive: > 76.9 µM
CCCCNc1nc2ccccc2nc1NS(=O)(=O)c1cccs1	inactive: > 76.9 µM
CCOC(=O)c1c(C)[nH]c(C(=O)CN2CCOCC2)c1C	inactive
CCn1c(SCC(=O)Nc2oc(-c3ccccc3)c(-c3ccccc3)c2C#N)nnc1-c1ccco1	inactive: > 76.9 µM
CN1C(=O)c2ccc(N3CCCC3)cc2C1=O	inactive: > 76.9 µM
O=C(O)CCc1ccc(-c2ccccc2)n1NC(=O)c1ccco1	inactive: > 76.9 µM
Cc1nnsc1-c1nc2ccccc2[nH]1	inactive: > 76.9 µM
Cc1nc2nc(C)c(CCC(=O)Nc3ccc4c(c3)OCO4)c(C)n2n1	inactive: > 76.9 µM
COc1cc(OC)c(C#N)c(S(=O)Cc2ccccc2)c1 (centres undefined)	inactive: > 76.9 µM
CN(C)c1cccc(C(=O)OCC(=O)NCc2ccco2)c1	inactive: > 76.9 µM
C=CCSc1[nH]c(=O)cc(C)c1C(N)=O	inactive: > 76.9 µM
C=CCn1c(SCc2cc(=O)n3ccsc3n2)nc2scc(C3CC3)c2c1=O	inactive: > 76.9 µM
Nc1nc(-c2ccccc2Br)cs1	inactive
O=c1c2[nH]c3ccc(Cl)cc3c2ncn1Cc1ccccn1	inactive: > 76.9 µM
c1ccc(Cc2nn3c(Cn4cnc5ccccc54)nnc3s2)cc1	inactive: > 76.9 µM
COc1ccc(-n2c(C)cc(C(=O)CSc3nnc(-c4ccoc4C)n3C)c2C)cc1	inactive: > 76.9 µM
O=C(CN1CCN(C2CCCCC2)CC1)NCCC1=CCCCC1	inactive: > 76.9 µM
CCOc1ccc2nc(NC3=NCN(Cc4ccco4)CN3)nc(C)c2c1	inactive: > 76.9 µM
Cc1ccc(-c2noc(-c3ccccc3C(=O)N3CCN(C)CC3)n2)cc1	inactive

Structure (SMILES)	Potency
CN(C(=O)c1ccno1)c1nnc(-c2cnccn2)s1	inactive: > 76.9 µM
CC(NC(=O)OC1CCCCC1)N1C(=O)C2C3C=CC(C3)C2C1=O (centres undefined)	inactive: > 76.9 µM
CCOC(=O)c1c(C)c(C(=O)N(C)C2CCCCC2)c(C)n1C	inactive: > 76.9 µM
OC1(c2ccccc2)C/C(=N\n2cnnc2)C=C1c1ccccc1 (centres undefined)	inactive: > 76.9 µM
CCC(C)(C)n1nnnc1C(c1cccnc1)N1CCCc2ccccc21 (centres undefined)	inactive: > 76.9 µM
COc1cccc(C2C(C(=O)Nc3cccnc3)=C(C)Nc3nnnn32)c1OC (centres undefined)	inactive: > 76.9 µM
c1cncc(-c2nc3ccccc3o2)c1	inactive: > 76.9 µM
COc1ccc2c(c1OC)C(=O)N(c1ccc3c(c1)CCC3)C2=O	inactive: > 76.9 µM
Cc1cc(-n2c(C)cc(C(=O)CN3C(=O)NC4(CCCCC4)C3=O)c2C)no1	inactive: > 76.9 µM
CC(C)(O)/C=C1/Oc2ccccc2C1N1CCCCC1 (centres undefined)	inactive: > 76.9 µM
O=C(CSc1nnc(-c2ccc(OC(F)F)cc2)o1)N1CCOCC1	inactive: > 76.9 µM
Fc1ccc(CSc2nnc(-c3cnccn3)n2Cc2ccco2)cc1	inactive: > 76.9 µM
CCCC1(C(=O)OC)NC(c2ccco2)C2C(=O)N(c3ccc(C)cc3)C(=O)C21 (centres undefined)	inactive: > 76.9 µM
O=S(=O)(c1cccs1)N1CCN(c2ncccn2)CC1	inactive: > 76.9 µM
Clc1ccccc1CN1CCc2sccc2C1	inactive: > 76.9 µM
COc1cccc(-c2ccc(=O)n(CC(=O)Nc3cc4c(cc3NC(C)=O)OCCO4)n2)c1	inactive: > 76.9 µM
CCOC(=O)C1=C(C)Nc2nc(SCC)[nH]c(=O)c2C1c1ccncc1 (centres undefined)	inactive: > 76.9 µM
COC(=O)/C=c1/sc2n(c1=O)CCN=2	inactive: > 76.9 µM
O=C(NCn1ccc(=O)[nH]c1=S)c1ccccc1	inactive: > 76.9 µM
CCOc1ccc2[nH]c(=O)c(=O)[nH]c2c1	inactive
O=C(NCc1ccc2c(c1)OCO2)C1CCCN(S(=O)(=O)c2cccc3nonc23)C1 (centres undefined)	inactive: > 76.9 µM
O=C1c2oc3ccccc3c(=O)c2C(c2cccc(F)c2)N1CCCO (centres undefined)	inactive: > 76.9 µM
